# Laboratory results taken from ChEMBL document CHEMBL4888484, “Replenishing the malaria drug discovery pipeline: Screening and hit evaluation of the MMV Hit Generation Library 1 (HGL1) against asexual blood stage Plasmodium falciparum ,using a nano luciferase reporter read-out” (2022).
# Hit rate of the full screen: of about 150,000 compounds, about 540 (0.36%) showed an effect of 50% or more. The list shows a part of the results.
# Tested on: Plasmodium falciparum
# Experiment: Primary screen in NF54 nanoGlo assay, in single point, at 2uM, 72h; a lower Z score goes with more inhibition
# Type: functional, Erythrocyte
# Details: timepoint 72 hour
Structure (SMILES),% Inhibition,Z score
O=C(C1CCN(c2cnc3nccnc3c2)CC1)N1CCC(Cc2ccccc2)CC1,6%,-1.08
CN1CCC[C@@H]1CCn1ccnc1C1CCCCC1,7%,-0.97
CN(C)S(=O)(=O)N1C[C@H]2CC[C@@H](C1)N(C(=O)c1ccc(F)c(F)c1)C2,-2%,0.44
CCc1nc(-c2cccc(NC(=O)CCC3CCCC3)c2)no1,-9%,1.53
Cc1cccc(NC(=O)c2scc(-c3ccc(F)cc3)c2S(=O)(=O)N(C)c2cccc(F)c2)c1,-14%,1.55
COc1cccc(C(=O)Nc2cc(-c3cccnc3)no2)c1,-26%,2.55
CCOC(=O)N1CCc2c(sc(NCc3c[nH]c4ccccc34)c2C(=O)Nc2ccccc2OCC)C1,3%,-0.55
O=C(Nc1ccc(Cl)c(Cl)c1)c1ncccn1,-21%,3.08
CCc1c(C(=O)N2CCNC[C@H](CC(=O)O)C2)csc1C,-11%,1.45
NC1CC(NCCc2cccc3cccnc23)c2ccccc21 (stereo not drawn),38%,-7.33
CN(Cc1ccc(-n2cccn2)cc1)C(=O)N[C@H]1C[C@H]2C(=O)NCC(=O)N2C1,-18%,2.41
CCN(CC)C(=O)CCc1c(C)nn(-c2ccccc2C)c1Oc1cccc(C)c1,-4%,0.59
O=C(NCc1ccc(F)c(Cn2ccnc2)c1)N1CCC(O)CC1,-17%,2.35
CN(CC1(CO)CCC1)C(=O)CCC(F)(F)F,-9%,1.41
O=C(Nc1cccc2c1CCCC2)N(CCO)Cc1nccs1,1%,-0.22
Cc1ccc(OCC(=O)OCCN2CCCC2=O)cc1C,-11%,0.93
C[C@@H]1CN(C(=O)NCCN2C(=O)Cc3ccccc32)C[C@H](C)O1,-12%,2.12
C[C@H]1C(=O)Nc2ccccc2CN1C(=O)Nc1cnn(CC2CC2)c1,-9%,1.82
O=C(c1ccc2nnnn2c1)N1CCN(c2ccc3[nH]ncc3c2)C(=O)C1,-3%,0.65
Cc1ccccc1OC1(C(=O)O)CCN(C(=O)[C@H]2CC23CCC3)CC1,2%,-0.32
COc1ccc(OCC(=O)NCCn2cc(C(=O)Nc3cccc(OC)c3)nn2)cc1,-17%,2.39

Structure (SMILES),% Inhibition,Z score
Cc1nccc(-c2ccccc2)c1C(=O)N1C[C@H]2C[C@H](O)[C@H](O)C[C@H]2C1,1%,-0.27
O=C(NCc1ccc(-c2ccoc2)o1)C1CCCC1,11%,-1.57
CC(C#N)CNC(=O)C1CCCC1C(=O)NCC(C)C#N (stereo not drawn),3%,-0.48
Cc1ccc(-n2nnc(-c3nc(C)c(C(=O)NCc4ccccc4)s3)c2C)cc1,-7%,1.23
Cn1cc(C(=O)N2N=CC[C@]2(O)C(F)(F)F)cn1,45%,-6.51
CC1C(Cc2ccccc2)CCN1C(=O)C1(S(C)(=O)=O)CCC1 (stereo not drawn),0%,0.03
O=C(NCC1(c2c(F)cccc2F)CCCC1)c1ccc(=O)[nH]n1,3%,-0.54
CC[C@H]1COCCN1C(=O)c1n[nH]c(N)c1Cl,5%,-0.66
Cc1cccc2c1nc1n2[C@@H](CNC(=O)Nc2ccccc2)COC1,14%,-1.62
COC(C(=O)OC(C)C(=O)N(C)C)c1ccccc1 (stereo not drawn),-3%,0.25
CN(C)S(=O)(=O)CCCN1CCCC[C@@H]1CCc1ccccn1,1%,-0.13
CC(C(=O)NC1CCC(=O)N(C)C1)c1ccccc1 (stereo not drawn),-11%,1.63
O=C(c1ccsc1)N1CC[C@H](Oc2cc(C(F)(F)F)ccn2)C1,-5%,0.91
CCCCCOCC(=O)N1CC[C@H](c2ncc[nH]2)C1,-5%,0.56
Cc1ncsc1CN1CCCCCCCC1=O,2%,-0.3
O=S(=O)(Nc1ccc(F)cc1)c1ccc2c(c1)-c1oncc1CO2,-11%,1.6
COCc1nc(CNc2nc3c(s2)c(C)nn3C)no1,-13%,2.25
CCC1(CC)CN(CC[C@H]2CCOC2)CCO1,-5%,0.43
Cc1occc1C(=O)Nc1cccc2ncccc12,-8%,1.13
C[C@@H](CN1CCCC1)c1nc(C2CC2)nn1CCO,-4%,0.73
COc1ncccc1C(=O)NCc1nc(C)cs1,-14%,2.69

Structure (SMILES),% Inhibition,Z score
O=C(C#Cc1ccccc1)N1CCO[C@H](c2ccco2)C1,0%,-0.02
COCCCN1C(=O)CC(CC(=O)N2CCC[C@H]2CO)(c2ccccc2Cl)C1=O (stereo partly drawn),-13%,1.74
O=C(CCc1cccnc1)Nc1nc(-c2cccc3ccccc23)cs1,-20%,2.33
Cc1cccc(-c2ocnc2C(=O)N2CCC[C@@H]2CCc2noc(C)n2)c1,1%,-0.13
CCCNCc1ccc(OC(F)F)cc1,-2%,0.22
Cc1nn(C)c(C)c1CNC(=O)Cc1nnc(O)c2ccccc12,-1%,0.13
Cc1oc(C)c(C(=O)Nc2nnc(C3CC3)s2)c1C,-12%,1.21
COc1ccc(N2C(=O)c3ccccc3N[C@]23C(=O)N(C)c2ccccc23)cc1,-6%,0.72
Cc1ncn(C)c1C(=O)N1CC[C@H](C(C)(C)O)C1,4%,-0.7
C[C@H]1CCCN(C(=O)c2nc[nH]c2C(=O)NC2CCCCC2)C1,15%,-1.79
CC(C)N1CCN(C(=O)c2ccc(-c3ccc4c(cnn4C)c3)cc2)CC1,14%,-1.86
C[C@H](C(=O)Nc1ccc(F)cc1F)C1CCN(C(=O)Nc2ccccc2)CC1,0%,0.08
CCOc1cc2cc(c1)C(=O)N(C)CC(=O)N[C@@H]1CN(C(=O)c3cc(CC(C)C)on3)CC[C@@H]1OCc1cccc(c1)O2,11%,-1.47
O=C(N1CC[C@H](N2CCc3ccccc3C2)C1)C1(c2ccccc2)CCOCC1,3%,-0.43
CC(C)Cn1ccc(C(=O)N[C@H](c2ccncc2)C2CC2)n1,-5%,0.56
Cc1nc(CN2C[C@@H](CC(C)C)CC2=O)n(C)n1,-21%,2.07
O=C(c1ccc(F)c(F)c1)N1CCC2(CCC(O)CC2)CC1,33%,-3.77
COCC(=O)N(CC(=O)N1CCc2sccc2C1COc1ccccc1C)CC1CCCO1 (stereo not drawn),-3%,0.41
CC1CCCCC1NC(=O)C(c1ccc(Cl)cc1Cl)N1CCOCC1 (stereo not drawn),0%,-0.05
CC(C)C(NC(=O)C1CCN(C)C(=O)C1)c1ccc(F)cc1 (stereo not drawn),-5%,0.74
O=C(NC[C@@H](c1cccnc1)N1CCCCC1)c1cnc(-c2ccncc2)nc1,-1%,0.2

Structure (SMILES),% Inhibition,Z score
C[C@H]1CCC(=O)N1c1cccc(NC(=O)NCCc2cn[nH]c2)c1,-3%,0.68
Cc1cc(CC(=O)NCCCc2nnc3ccccn23)on1,-19%,2.38
CNc1cc(C(=O)N2CCn3nc(CCC(=O)NC4CC4)cc3C2)ccn1,-14%,2.19
COc1ccc(N(C)S(=O)(=O)c2cc3c(cc2Cl)Oc2cc(C)ccc2NC3=O)cc1,-10%,1.4
N#CCC1(O)CN(Cc2cc(F)cc(F)c2)C1,4%,-0.63
CCC(=O)Nc1ccc(N2CCN(C(=O)NC(C)C)CC2)c(C(=O)N2CCCCC2)c1,-4%,0.65
C[C@@H]1CNCCN1C(=O)NCc1ccc2c(n1)CCCC2,1%,-0.06
Oc1cccnc1CN1CCOC[C@H]1c1nc[nH]n1,-4%,0.72
COc1ccc(C(=O)N2CCC[C@@]3(C2)NC(=O)N(Cc2ccc(C)cc2)C3=O)cc1,11%,-1.39
COc1ccc(F)c(F)c1CN1CCN(c2ccnc3nncn23)CC1,-1%,0.18
COC(CN1CCNC(=O)[C@@H]1c1ccc(F)cc1C)OC,-10%,1.6
Cc1[nH]c2ccccc2c1C(c1ccc2c(c1)OCO2)c1c(C)[nH]c2ccccc12,34%,-3.85
COCCc1nc([C@@H](N)Cc2ccc(OC)cc2)n(C2CCCCC2)n1,-2%,0.28
CC(C)(C)NCC(=O)Nc1cc(F)cc(F)c1,-10%,1.62
Cc1cc(C)c(CN2CCN(C)CC2)cc1CN(C)Cc1nccs1,-11%,1.99
COC[C@H]1CCCN(C(=O)Cc2ccc3[nH]c(=O)[nH]c3c2)CC1,-7%,1.29
COCCNC(=O)c1cc2n(n1)C[C@@](C)(C(=O)NCc1ccc(F)cc1)N(C)C2=O,14%,-1.62
Cc1cc(C)n([C@@H](C)CNC(=O)Nc2ccc3c(c2)C(=O)N(C2CC2)C3=O)n1,-7%,0.94
CC(=O)Nc1ccc(-c2cc(C(=O)N3CCN(C4CCCCC4)CC3)c3cc(C)ccc3n2)cc1,7%,-0.85
COC(=O)C(C)(C)NS(=O)(=O)c1ccc(OC)c(Cl)c1,-14%,2.27
COc1ccc(Oc2nc(N3CCC(C)CC3)nc3c2CN(C(=O)Cc2ccc(F)cc2)CC3)cc1,-5%,0.66
